According to the BET-seq Pho4 binding data (Le et al. 2018):
The other results are listed elsewhere or left out. Values were computed here from the reads of four pooled replicates and scatter widely.

Each sequence was assayed against T1, Pho4 (S. cerevisiae) (UniProt P07270) (assay: relative binding free energy (BET-seq); higher = weaker binding). Conditions: reference: library average.
T1 sequence: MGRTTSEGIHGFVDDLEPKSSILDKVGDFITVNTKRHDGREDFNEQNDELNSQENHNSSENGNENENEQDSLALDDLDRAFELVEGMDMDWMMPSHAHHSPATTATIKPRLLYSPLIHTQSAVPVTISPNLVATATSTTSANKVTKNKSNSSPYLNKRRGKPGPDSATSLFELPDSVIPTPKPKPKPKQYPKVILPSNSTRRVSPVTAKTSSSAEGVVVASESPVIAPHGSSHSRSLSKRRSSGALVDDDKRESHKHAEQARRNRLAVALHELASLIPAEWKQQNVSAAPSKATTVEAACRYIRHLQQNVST
GGGAACACGTGTCTGG was tested, and the “relative binding free energy” value was 0.17 kcal/mol.
TTTGTCACGTGCCATT was tested, and the “relative binding free energy” value was 0.01 kcal/mol.
With TTGCTCACGTGGTAAT the “relative binding free energy” value was 0.22 kcal/mol.
With GGGCTCACGTGAGTTT the “relative binding free energy” value was 0.46 kcal/mol.
With CGCGGCACGTGTAAGT the “relative binding free energy” value was 0.06 kcal/mol.
In the case of TATCGCACGTGGAATG, the “relative binding free energy” value is reported as 0.03 kcal/mol.
With GGTGGCACGTGGGATG the “relative binding free energy” value was -0.14 kcal/mol.
For GGGGGCACGTGTGGAG, the “relative binding free energy” value was 0.01 kcal/mol.
In the case of GGGGGCACGTGCGGTG, the “relative binding free energy” value is reported as -0.12 kcal/mol.
AGTGGCACGTGGCGAG was tested, and the “relative binding free energy” value was -0.1 kcal/mol.
For CGAATCACGTGGGTAG, the “relative binding free energy” value was 0.09 kcal/mol.
With AGGATCACGTGAGTTA the “relative binding free energy” value was 0.23 kcal/mol.
For AGTATCACGTGAGGGC, the “relative binding free energy” value was 0.29 kcal/mol.
In the case of TTTTGCACGTGCGGAG, the “relative binding free energy” value is reported as 0.1 kcal/mol.
In the case of CGTTACACGTGTAGAT, the “relative binding free energy” value is reported as 0.34 kcal/mol.
In the case of GAGTTCACGTGATTGA, the “relative binding free energy” value is reported as 0.33 kcal/mol.
For TGTACCACGTGGGGAG, the “relative binding free energy” value was -0.24 kcal/mol.
TATCACACGTGGTGGG was tested, and the “relative binding free energy” value was -0.1 kcal/mol.
For GTAAACACGTGATGAT, the “relative binding free energy” value was 0.33 kcal/mol.
With AGGTCCACGTGGTTTT the “relative binding free energy” value was -0.04 kcal/mol.
For ATGTTCACGTGTTGGG, the “relative binding free energy” value was 0.29 kcal/mol.
In the case of ATATGCACGTGGGGCG, the “relative binding free energy” value is reported as -0.19 kcal/mol.
With TGAATCACGTGGAGGC the “relative binding free energy” value was 0.11 kcal/mol.
With AGAGACACGTGTGGGT the “relative binding free energy” value was 0.08 kcal/mol.
GTCAGCACGTGTTGGC was tested, and the “relative binding free energy” value was 0.06 kcal/mol.
For ACAGGCACGTGTAGGG, the “relative binding free energy” value was -0.14 kcal/mol.
With GTTTGCACGTGGCAGT the “relative binding free energy” value was -0.05 kcal/mol.
For AGGAGCACGTGTACGG, the “relative binding free energy” value was -0.09 kcal/mol.
With GGCATCACGTGGGGGG the “relative binding free energy” value was -0.06 kcal/mol.
TTGGGCACGTGGGATC was tested, and the “relative binding free energy” value was -0.01 kcal/mol.
For AGTTACACGTGGTTTC, the “relative binding free energy” value was 0.06 kcal/mol.
For TTCGTCACGTGTAAGA, the “relative binding free energy” value was 0.1 kcal/mol.
In the case of ATGCGCACGTGTGTGC, the “relative binding free energy” value is reported as -0.11 kcal/mol.
TAAGCCACGTGTGAGT was tested, and the “relative binding free energy” value was -0.15 kcal/mol.
TACGTCACGTGTATGG was tested, and the “relative binding free energy” value was 0.14 kcal/mol.
For GTTGTCACGTGGGGAG, the “relative binding free energy” value was 0.07 kcal/mol.
For GGCATCACGTGCATGG, the “relative binding free energy” value was 0.21 kcal/mol.
With GGGGTCACGTGAGCGC the “relative binding free energy” value was 0.38 kcal/mol.
With TGGCTCACGTGTTGAA the “relative binding free energy” value was 0.27 kcal/mol.
For AGTGTCACGTGGGGAG, the “relative binding free energy” value was -0.04 kcal/mol.
TGGAACACGTGATGCG was tested, and the “relative binding free energy” value was 0.11 kcal/mol.
For TTCATCACGTGGTGGT, the “relative binding free energy” value was 0.11 kcal/mol.
CGGGGCACGTGATGAA was tested, and the “relative binding free energy” value was 0.1 kcal/mol.
TACGTCACGTGAGGTT was tested, and the “relative binding free energy” value was 0.17 kcal/mol.
For GGGTCCACGTGGATGG, the “relative binding free energy” value was 0.08 kcal/mol.
With TGTAGCACGTGTTTAA the “relative binding free energy” value was -0.04 kcal/mol.
For TGATGCACGTGATGGA, the “relative binding free energy” value was 0 kcal/mol.
For TGAGGCACGTGTGGGT, the “relative binding free energy” value was -0.04 kcal/mol.
For TTACGCACGTGTGTAA, the “relative binding free energy” value was -0.14 kcal/mol.
In the case of TCGGTCACGTGTTATA, the “relative binding free energy” value is reported as 0.06 kcal/mol.
For AAGTGCACGTGTCGGA, the “relative binding free energy” value was 0.07 kcal/mol.
ACTAGCACGTGGGGGG was tested, and the “relative binding free energy” value was -0.21 kcal/mol.
In the case of AGTGTCACGTGTAGAT, the “relative binding free energy” value is reported as 0.09 kcal/mol.
In the case of AAGAGCACGTGGTTAA, the “relative binding free energy” value is reported as -0.2 kcal/mol.
With GACTTCACGTGATGGG the “relative binding free energy” value was 0.33 kcal/mol.
For GGGTTCACGTGAATAG, the “relative binding free energy” value was 0.46 kcal/mol.
In the case of CTTATCACGTGGGGTG, the “relative binding free energy” value is reported as -0.04 kcal/mol.
TTCGCCACGTGGGATT was tested, and the “relative binding free energy” value was 0.03 kcal/mol.
With ATTGACACGTGTTTAA the “relative binding free energy” value was 0.05 kcal/mol.
With GGGTCCACGTGTGTTA the “relative binding free energy” value was 0.16 kcal/mol.
For GTATTCACGTGTTCGC, the “relative binding free energy” value was 0.3 kcal/mol.
In the case of GGGTCCACGTGTTGTA, the “relative binding free energy” value is reported as -0.08 kcal/mol.
In the case of TCCGACACGTGGGGTT, the “relative binding free energy” value is reported as -0.06 kcal/mol.
In the case of AGGCGCACGTGCAGGT, the “relative binding free energy” value is reported as -0.12 kcal/mol.
GGGGTCACGTGACTAG was tested, and the “relative binding free energy” value was 0.22 kcal/mol.
ATTGTCACGTGTTTTG was tested, and the “relative binding free energy” value was 0.07 kcal/mol.
With GTTAGCACGTGATGTT the “relative binding free energy” value was 0.27 kcal/mol.
In the case of TTTGCCACGTGTTGTA, the “relative binding free energy” value is reported as -0.02 kcal/mol.
In the case of GGTGTCACGTGGTCGT, the “relative binding free energy” value is reported as -0.02 kcal/mol.
TCTGTCACGTGTTGGA was tested, and the “relative binding free energy” value was -0.02 kcal/mol.
With GCTCGCACGTGGGGGG the “relative binding free energy” value was -0.24 kcal/mol.
GGGCGCACGTGTAGAG was tested, and the “relative binding free energy” value was -0.13 kcal/mol.
In the case of AAATGCACGTGCATGG, the “relative binding free energy” value is reported as 0.05 kcal/mol.
With GGTGTCACGTGAATAT the “relative binding free energy” value was 0.18 kcal/mol.
TTCTGCACGTGCGTAT was tested, and the “relative binding free energy” value was -0.03 kcal/mol.
For CAGTTCACGTGGAGGG, the “relative binding free energy” value was 0.06 kcal/mol.
With GTTAGCACGTGATCAG the “relative binding free energy” value was 0.1 kcal/mol.
With TAAGACACGTGGTCTG the “relative binding free energy” value was -0.08 kcal/mol.
In the case of AATCGCACGTGAAGTG, the “relative binding free energy” value is reported as 0.39 kcal/mol.
In the case of AATTACACGTGATAGT, the “relative binding free energy” value is reported as 0.15 kcal/mol.
With TTCGACACGTGAGGGA the “relative binding free energy” value was 0.19 kcal/mol.
TAGTGCACGTGCGAGT was tested, and the “relative binding free energy” value was -0.05 kcal/mol.
GGGATCACGTGTTCGT was tested, and the “relative binding free energy” value was 0.06 kcal/mol.
With GGTAACACGTGACGGG the “relative binding free energy” value was 0.23 kcal/mol.
For GTTGTCACGTGTAAGG, the “relative binding free energy” value was 0.27 kcal/mol.
With GTCTGCACGTGTGGGG the “relative binding free energy” value was 0.15 kcal/mol.
For AGTGTCACGTGCGTAG, the “relative binding free energy” value was 0.01 kcal/mol.
GGGGGCACGTGTGCAA was tested, and the “relative binding free energy” value was -0.3 kcal/mol.
For TTGGACACGTGTATCT, the “relative binding free energy” value was 0.16 kcal/mol.
For TTATGCACGTGCGAGT, the “relative binding free energy” value was -0.1 kcal/mol.
GGCGACACGTGTTATT was tested, and the “relative binding free energy” value was 0.21 kcal/mol.
With TACATCACGTGTAAGG the “relative binding free energy” value was 0.19 kcal/mol.
With GAGGGCACGTGTGGCA the “relative binding free energy” value was 0.02 kcal/mol.
In the case of CAAGGCACGTGGAAGG, the “relative binding free energy” value is reported as -0.06 kcal/mol.
In the case of CTTTGCACGTGGGAAG, the “relative binding free energy” value is reported as -0.04 kcal/mol.
With TTATTCACGTGTTCTT the “relative binding free energy” value was 0.27 kcal/mol.
With TTTTTCACGTGATGGA the “relative binding free energy” value was 0.47 kcal/mol.
TGATTCACGTGGGACT was tested, and the “relative binding free energy” value was 0.26 kcal/mol.
For ATATGCACGTGTAGTA, the “relative binding free energy” value was -0.22 kcal/mol.
In the case of TATTGCACGTGGCTTA, the “relative binding free energy” value is reported as -0.08 kcal/mol.
TGTCTCACGTGGACGT was tested, and the “relative binding free energy” value was 0.27 kcal/mol.
With GGGAACACGTGGGTGC the “relative binding free energy” value was 0.01 kcal/mol.
With TGCTTCACGTGGACGT the “relative binding free energy” value was 0.4 kcal/mol.
For CGATTCACGTGGGTTG, the “relative binding free energy” value was 0.13 kcal/mol.
In the case of TAGGGCACGTGGAGCG, the “relative binding free energy” value is reported as 0 kcal/mol.
For GGAGTCACGTGTTTTA, the “relative binding free energy” value was 0.07 kcal/mol.
TCCGTCACGTGGGCTT was tested, and the “relative binding free energy” value was 0.17 kcal/mol.
GGTCTCACGTGGTTAG was tested, and the “relative binding free energy” value was 0.2 kcal/mol.
GGGTTCACGTGCGATT was tested, and the “relative binding free energy” value was 0.31 kcal/mol.
GGCCTCACGTGGTAGT was tested, and the “relative binding free energy” value was 0.19 kcal/mol.
With TCGCGCACGTGTGGGC the “relative binding free energy” value was 0.03 kcal/mol.
In the case of GCTGGCACGTGTGAGT, the “relative binding free energy” value is reported as -0.02 kcal/mol.
In the case of TTTTTCACGTGCGCGT, the “relative binding free energy” value is reported as 0.23 kcal/mol.
With GAAGTCACGTGCGTGG the “relative binding free energy” value was 0.01 kcal/mol.
AGTCTCACGTGAGAGT was tested, and the “relative binding free energy” value was 0.57 kcal/mol.
